Measured values: the RNAGym collection of RNA variant scans (doi:10.1073/pnas.2313332121)
This sample is rich in variants without activity.

B1: TPR 5TU (parent)
chain: GGAUCUUCUCGAUCUAACAAAAAAGACAAAUCUGCCACAAAGCUUGAGAGCAUCUUCGGAUGCAGAGGCGGCAGCCUUCGGUGGCGCGAUAGCGCCAACGUUCUCAACUAUGACACGCAAAACGCGUGCUCCGUUGAAUGGAGUUUAUCAUG

Variants of: B1
Assay: polymerase ribozyme fitness, log enrichment relative to wild type (log ratio); higher = more active; in vitro selection for triplet polymerase activity
Method in brief: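 Frozen incubation at −7 °C formed the core of a single, triplicate in vitro selection round applied to PCR-built, transcribed mutant libraries of each subunit of a heterodimeric triplet polymerase ribozyme. Extended constructs were gel-excised, captured with streptavidin beads and amplified by RT-PCR, and input and output libraries were Illumina-sequenced with a filter of ≥10 input reads and ≥1 read per output. Fitness is the logarithm of genotype enrichment relative to wild-type enrichment, with inverse-variance-weighted replicate averaging, and the logarithm is base 2.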

Polymerase ribozyme fitness (log ratio), ≤ -4.2:
GGAUCUUCUCGAUCUAACAAAAAAGACAUAUCUGCCACAAAGCUUGAGAACAUCUUCGGAUGCAGAGGCGGCAGCCUUCGGUGGCGCGAUAGCGCCAACGUUCUCAACUAUGACAUGCAAAACGCGUGGUCCGUUGAAUGGAGUUUAUCAUG [A29U G50A C116U C129G]
GGAUCUUCUCGAUCUAACAAAAAAGACAUAUCUGCCACAAAGCUUGACAGCAUCUUCGGAUGCAGAGGCGGCAGACUUCGGUGGCGCGAUAGCGCCAACGUUCUCAACUAUGACACGCAAAACCCGUGCUCCGUUGAAUGGAGAUUAUCAUG [A29U G48C C75A G124C U144A]
GGAUCUUCUCGAUCUAACAAAAAAGACAUAUCUGCCACAAAGCUUGAGAGCAUCUUCGGAUGCAGAGGCGGCAGCCUUCGGUGGCGCGAUAGCGCUAACGUUCUCCACUAUGACACGCAAAACGCGGGCUCCGUUGAAUGGAGUUUAUCAUG [A29U C96U A106C U127G]
GGAUCUUCUCGAUCUAACAAAAAAGACAUAUCUGCCAUAAAGCUUGAGAGCAUCUUCGGAUGCAGAGGCGGCAGCCUUCGGUGGCUCGAUAGCGCCAACGUUCUCAACUAUGACACGCAAAACGCGUGCUCCGUUAAAGGGAGUUUAUCAUG [A29U C38U G86U G136A U139G]
GGAUCUUCUCGAUCUAACAAAAAAGACAUAUCUGCCACAAAGCUAGAGAGCAUCUUCGGAUGCAGAGGCAGCAGCCUUCGGUGGGGCGAUAGCGCCAACGUUCUCAACUAUGACACGCAAAACGCGUGCUCCGUUGAAUGGAGUUUAUCAUG [A29U U45A G70A C85G]
GGAUCUUCUCGAUCUAACAAAAAAGACAUAUCUGCCACAAAGCUUGAUAGCAUCUUCGGAUGCAGAGGCGGCAGCCUUCGGUGGCGCGAUAGCGUCAACGUUCUCAACUAUGUCACGCAAAGCGCGUGCUCCGUUGCAUGGAGUUUAUCAUG [A29U G48U C95U A113U A122G A137C]
GGAUCUUCUCGAUCUAACAAAAAAGACAUAUCUGCCACAAAGCUUGAGAGCAUCUUCGGAUGCAGAGGCGACAGCCUUCGGUGGCGCGAUAGGGCCAACGUUCUCAACUAUGACACGCAAAACGCGUGCUCCGUUGAAUGGAGUUUAUCAUG [A29U G71A C93G]
GGAUCUUCUCGAUCUAACAAAAAAGACAUAUCUGCCACAAAGCUUGAGAGCAUCUUCGGAUGCAGAGGCGGCAGCCUUUGGUUGCGCGAUAGCGCCAACGUUCUCAACUAAGACACGCAAAACGCGUGCUCCGUUGAAUGGAGUUUAUCAUG [A29U C79U G83U U111A]
GGAUCUUCUCGAUCUAACAAAAAAGACAUAUCUGCCACAAAGCUUGAGAGCAUCUUCGGAUGCAGAGGCGGCAGCCUUCGGUGGCGCGAUAACGCCAACGUUCUCAACUAUGACACGCAAAACGCGUGCUCCGUUGGAUGGAGUUUAGCAUG [A29U G92A A137G U148G]
GGAUCUUCUCGAUCUAACAAAAAAGACAUAUCUGCCACAAAGCUUGAGAGCAUCUUCGGAUGCAGAGGCGGCAGCCUUCGGUGGAGCGAUAGCGCCAACGUUCUCAACUAUUACACGCAAAACGCGUGCUCCGUUGAAUGGAGUUUAUCAUG [A29U C85A G112U]
GGAUCUUCUCGAUCUAACAAAAAAGACAUAUCUGCCACAAAGCUGGAGAGCCUCUUCGGAUGCAGCGGCGGCAGCCUUCGGUGGCGCGAUAGUGCCAACGUUCUCAACUAUGACACGCAAAACGCGUGCUCCGUUGAAUUGAGUUUAUCAUG [A29U U45G A52C A66C C93U G140U]
GGAUCUUCUCGAUCUAACAAAAAAGACAUAUCUGCCAGAAAGCUUGGGAGCAUCUUCGGAAGCAUAGGCGGCAGCCUUCGGUGGCGCGAUAACGCCAACGUUCUCAACUAUGACACGCAAAACGCGUGCUCCGUUGAAUGGAGUUAAUCAUG [A29U C38G A47G U61A G65U G92A U146A]
GGAUCUUCUCGAUCUAACAAAAAAGACAUAUCUGCCACAAAGCUUAAGAACAUCUUCGGAUGCAGAGGCGGCGGCCUUCGUUGGCGCGAUAGCGGCAACGUUCUCAACUAUGACACGCAAAACGCGUGCUCCGUUGAAUGGAGUUUAUCAUG [A29U G46A G50A A73G G81U C95G]
GGAUCUUCUCGAUCUAACAAAAAAGACAUAUCUGCCACAAAGCUUGAGAGAAUCUUCGGAUGCAGAGGCGGCAGCCUUCGGUGGCGCGAUAGCACCAACGUUCUCAACUAUGACACGCAAAACGCGUGCUCCGUUGAAUGGAGUUUAUCAUG [A29U C51A G94A]
GGAUCUUCUCGAUCUAACAAAAAAGACAUACAUGCCACAAAGCUUGAGAGCAUCUUCGGAUGCAGAGGCGGCAGCCUUCGGUGGCGCGAUGGCGCCAACGUUCUCAACUAUGACACGCAAAACGCGUGCUCCUUUGAAUGGAGUUUAUCAUG [A29U U31C C32A A91G G133U]
GGAUCUUCUCGAUCUAACAAAAAAGACAUAUCUGCCACAAAGCUUGAGACCAUAAUCGGAUGCAGAGGCGGCAGCCUUCGCUGGCCCGAUAGCGCCAACGUUCUCAACUAUGACACGCAAAAUGAGUGCUCCCUUGAAUGGAGUUUAGCAUG [A29U G50C C54A U55A G81C G86C C123U C125A G133C U148G]
GGAUCUUCUCGAUCUAACAAAAAAGACAUAUCUGCCACAAAGCUUGAGAGCAACUUCGGAUGCAGAGGCGGCAGCGUUCGGUGGAGCGAUAGCGCCAACGUUCUCAACUAUGACACACAAAACGCGUGCUCCGUUGAAUGGAGUUUAUUAUG [A29U U53A C76G C85A G117A C149U]
GGAUCUUCUCGAUCUAACAAAAAAGACAUAUCUGCCACAAAGCUUGAGAACAUCUUCCGAUGCAGAGGCGGCAGCCUUCGGUGGCGCGAUAGCGUCAACGUUCUUAACUAUGACACCCAAAACGCGUGCUCCGUUGAAUGGAGUUUAUCAUG [A29U G50A G58C C95U C105U G117C]
GGAUCUUCUCGAUCUAACAAAAAAGACAUAUCUGCCACAAAGCAUGAGAGCAUCUUCGGAUGCAGAGGCGGCAGGCUUCGGUGGCGCGAUAGCGCCAACGUUCUCAACUAUGACACGCAAAACGCGUGCUCCGUUGAAUGGAGUUUAUCAUG [A29U U44A C75G]
GGAUCUUCUCGAUCUAACAAAAAAGACAUAUCUGCCACAAAGCUUGAAAGCAUCUUCGGAUGCAGAGGCGGCGGCCUUCGGUGGCGCGAUCGCGCCAACGUUCUCAACUAUGACACGCAAAACGCGUGCUCCGUUGAAUGGAGUUUAUCAUG [A29U G48A A73G A91C]
GGAUCUUCUCGAUCUAACAAAAAAGACAUAUCCGCCACAAAGCUUGAGAGCAUCUUCGGAUGCAGAGGCGGCAGCCUUCGGUGGCGUGAUAGCGCCAAUGUUCUCAACUAUGACACGCAAAACGCGUGCUCCGUUGAAUGGAGUUUAUCAUG [A29U U33C C87U C99U]
GGAUCUUCUCGAUCUAACAAAAAAGACAUAUCUGCCACAAAGCUUGAGAGCAUCUUCGGAUGCAGAGGCGGCAGCCUUCGGUGGCGCGAUAGCGCCAAGGUUCUCAACUAUGACACUCAAAACGCGUGCUCCGUUGAAUGGAGUUUAUCAUG [A29U C99G G117U]
GGAUCUUCUCGAUCUAACAAAAAAGACAUAUCUGCCACAAAGCUUGAGAGCAUCUUCGGAUGCAGAGGCGGCAGCCUUCGGUGGCGGGAUAGCGCCAACGUUCAUAACUAUGACACUCAAAACGCGUGCUCCGUUGAAUGGAGUUUAUCAUG [A29U C87G U104A C105U G117U]
GGAUCUUCUCGAUCUAACAAAAAAGACAUAUCUGCCACAAAGCUUGAGAGCAUCUUCGGAUGCAGAGGCGGCAGCCUUCGAUGGCGCGAUAGCGCCAAGGUUCUCAACUAUGACACGCUAAACGCGUGCUCCGUUGAAUGGAGUUUAUCAUG [A29U G81A C99G A119U]
GGAUCUUCUCGAUCUAACAAAAAAGACAUAUCUGCCACAAAGCUUGAUAGCAUCUACGGAUGCAGCGGCGGCAGCCUUCGGUGGCGCGAUAGCGCAGACGUUCUCAACUAUGACACGCAUAACGCGUGCUCCGUUGAAUGGAGUUUAUCAUG [A29U G48U U56A A66C C96A A97G A120U]
GGAUCUUCUCGAUCUAACAAAAAAGACAUAUCUGCCACAAAGCUUGAGAGCAUCUUUGUAUGCAGAGGCGGCAGCCUUCGGUGGCGCGAUAGUGCCAACGUUAUCAACUAUGACACGCAAAACGCGUGCUCCGUUGAAUGCAGAUUAUCAUG [A29U C57U G59U C93U C103A G141C U144A]
GGAUCUUCUCGAUCUAACAAAAAAGACAUAUCUGCCACAAAGCUUGAGAGCAUCUUCGGAUGCAGAGGCGGCAGCCUUCGGUGGCGCGAUAGCUCCAACGUUCUCAACAAUGACACGCAAAACGCGUGCUCCGUUGAAUGGAGUUUAUCAUG [A29U G94U U109A]
GGAUCUUCUCGAUCUAACAAAAAAGACAUAUCUGCCACAAAGGUUGAGAGCAUCUUCGGAUGCAGAGGCGGCAGCCUUCGGUGGCGCGAUAGGGCCAACGUUCUCAACUAUGACACGCAAAACGCGUGCUCCGUUGAAUGGAGUUUAUCAUG [A29U C43G C93G]
GGAUCUUCUCGAUCUAACAAAAAAGACAUAUCUGCCACAAAGCUUGAGAGCAUCUUGGGAUGCAGAGACGGCAGCCUUCGGUGGCGGGAUUGCGCCAACGUUCUCAACUAUGACACGCAAAACGCGUGCUCCGUUGAAUGGAUUUCAUCAUG [A29U C57G G68A C87G A91U G143U U146C]
GGAUCUUCUCGAUCUAACAAAAAAGACAUAUCUGCCACAAAGCUUGAGAGCAUCUUCGGAUGCAGAGGCCGCAGCCUUCGGUGACGCGAUAGCGCUAACGUUCUCAACUAUGACACGCAAAACGCGUGCUCCGUUGAAUGGAGUUUAUCAUG [A29U G70C G84A C96U]
GGAUCUUCUCGAUCUAACAAAAAAGACAUAUCUGCCAUAAAGCAUGAGAGCAUCAUUGGAUGCAGAGGCGGCAGCCUUCGGUGGCGGGAUAGCGGCAACGUUCUCAACUAUGACACGCAAAACGCGUGCUCCGUUGAAUGGAGUUUAUCAUG [A29U C38U U44A U55A C57U C87G C95G]
GGAUCUUCUCGAUCUAACAAAAAAGACAUAGCUGGCACAAAGCUUGAGAGCAUCAUAGGAUGCAGCGGCGGCAGCCUUUGGUGGCGCGAUAGCGCGAACGUUCUCAACUAUGACACGCAAAACGCGUGCUCCGUUGAAUGGAGUUUAUCAUG [A29U U31G C35G U55A C57A A66C C79U C96G]
GGAUCUUCUCGAUCUAACAAAAAAGACAUAUCUGCCACAAAGCUUGAGAGCAUCCUCGGCUGCAGAGGCGGCAGCCUUCGGUGGCGCUAUAGGGCCAACGUUCUCAACUAUGACACGCAAAACGCGUGCUCCGUUGAAUGGAGUUUAUCAUG [A29U U55C A60C G88U C93G]
GGAUCUUCUCGAUCUAACAAAAAAGACAUAUCGGCCACAAAGCUUGAGAGCAUGUUCGGAUGCAGAGGCGGCAGCCUUCGGUGGCGCGAUAGCGCCAACGUUCUCCACUAUGACACGCAAAACGCGUGCUCCGUUGAAUGGAGUUUAUCAUG [A29U U33G C54G A106C]
GGAUCUUCUCGAUCUAACAAAAAAGACAUAUCUACCACACAGCUUGAGAGCAUCUUCGGAUGCAGAGCCGGCAGCCUUCGGUGGCGCGAUAGCGCAAACGUUCUCAACUAUGACACGCAAAACGCGUGCUCCGUUGAAUGGAGUUUAUCAUG [A29U G34A A40C G68C C96A]
GGAUCUUCUCGAUCUAACAAAAAAGACAUAUCUGCCACAAAGCUUGAGAGGAUCUUCGGAUGCAGAGACGGCAGCCUUCGGUGGCGCGAUAGGGCCAACGUUCUCAACUAUGACACGCAAAACGCGUGCUCCGUUGAAUGGAGUUUAUCAUG [A29U C51G G68A C93G]
GGAUCUUCUCGAUCUAACAAAAAAGACAUAUCUGCCACAAAGCUUGAGAGCAUCUUCGGAUGUAGAGGCGGCAGCCUUCGGUGGCGCGAUAGCGCCAACGUUCUCAACUAUGAUACGCAAAACGCGUGCUCCGUUGAAUGGAGUUUAUCAUG [A29U C63U C114U]
GGAUCUUCUCGAUCUAACAAAAAAGACAUAUCUGCCACAAAGCUUGAGAGCAUCUUCGGAUGCAGAGGCGGUAGCGUUCGGUGGCUCGAUAGCGCCAAAGUUCUCAACUAUGACACGCAAAACGCGUGCUCCGUUGAAUGGAGUUUAUCAUG [A29U C72U C76G G86U C99A]
